Measured values from PubChem BioAssay AID485344 (National Center for Advancing Translational Sciences (NCATS), 2010).
Out of some 340,000 compounds screened, about 6,900 (2%) were called active. No stated cut-off is given here; in the data, active means inhibition above about 30%; inactive means below that, where a call was filed. The entries are a selection whose mix differs from that of the whole data set. The source gives no active or inactive call for entries shown without one.

target: D(2) dopamine receptor (Homo sapiens) (UniProt P14416); experiment: HTS Assay for Allosteric Antagonists of the Human D2 Dopamine Receptor: Primary Screen for Antagonists; conditions: HEK293 TREx D2 cells, calcium flux, dopamine EC80; at 10 µM; stronger effect = higher value; further: 0% is about no effect
Sequence of UniProt P14416 (P14416 whole entry, looked up): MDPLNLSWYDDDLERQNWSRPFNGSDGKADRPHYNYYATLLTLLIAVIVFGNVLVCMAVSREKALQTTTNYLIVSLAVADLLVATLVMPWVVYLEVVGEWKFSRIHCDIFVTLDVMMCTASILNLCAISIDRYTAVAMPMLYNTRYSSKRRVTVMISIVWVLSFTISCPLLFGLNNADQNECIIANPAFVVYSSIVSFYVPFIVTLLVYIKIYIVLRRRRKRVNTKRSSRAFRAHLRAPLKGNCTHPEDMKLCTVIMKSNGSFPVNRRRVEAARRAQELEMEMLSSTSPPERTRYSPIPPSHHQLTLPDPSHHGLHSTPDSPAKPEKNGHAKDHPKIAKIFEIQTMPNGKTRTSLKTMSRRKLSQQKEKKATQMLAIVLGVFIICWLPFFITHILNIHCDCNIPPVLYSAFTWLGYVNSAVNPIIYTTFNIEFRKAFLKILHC
Summary of the method: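 Calcium mobilization kinetics were recorded at 1 s intervals in tetracycline-induced HEK293 T-REx D2 cells, first for 180 s after compound addition and then 180 s after EC80 dopamine.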

Structure (SMILES) | inhibition
Cc1nc2ccccn2c(=O)c1CCN1CCC(C(=O)c2ccc(F)cc2)CC1 | active: 94.8%
CCCOc1ccc(C2c3c(oc4ccccc4c3=O)C(=O)N2c2ccc(C)cn2)cc1OCC (configuration not stated) | 4.77%
O=C(Nc1ccc(C(F)(F)F)cc1)c1cc(S(=O)(=O)NC2CCCCCC2)ccc1F | 10.4%
CCOC(=O)c1ccc(CN(Cc2ccc(F)cc2)S(=O)(=O)c2ccc(F)cc2)cc1 | 17.3%
Cc1ccc(C)c(NC(=O)Nc2nnc(N(CC(C)C)CC(C)C)s2)c1 | 8.63%
Cc1ccc(CCNC(=O)c2ccc3c(=O)n(-c4ccc(C)cc4)c(=O)[nH]c3c2)cc1 | 0.293%
Cc1ccccc1S(=O)Cc1ccc(C(=O)NC2CCCCCC2)o1 (configuration not stated) | -9.25%
Cc1ccc(NC(=O)c2nc(S(C)(=O)=O)ncc2N(Cc2ccco2)Cc2ccccc2F)c(C)c1 | -22.8%
CCN(Cc1ccccc1)C(=O)CCS(=O)(=O)c1cc2c(cc1Cl)NC(=O)CO2 | 19.9%
NCCC(=O)N1c2ccccc2Sc2ccc(Cl)cc21 | active: 48.1%
Cc1nc2scc(C)n2c(=O)c1S(=O)(=O)Nc1cccc(O)c1 | -17.5%
CCOc1ccc(OCC)c(NC(=O)c2nnn(Cc3cc(Br)ccc3OC)c2N)c1 | -8.54%
COCCCNC(=O)c1cn(CC(C)C)c(=O)c2c1c1ccccc1n2C | 10.7%
COCCn1c(CNC(=O)c2cccc(N(C)C)c2)nc2cccnc21 | 5.62%
CC(=O)c1ccc(N2CCN(C(=O)C3CCN(S(=O)(=O)c4ccc(Br)s4)CC3)CC2)cc1 | -7.38%
COc1ccccc1N1CCN(C2C(=O)c3ccccc3N2C(C)=O)CC1 (configuration not stated) | -2.21%
CCOc1ccc(S(=O)(=O)NCC(c2ccc(N(C)C)cc2)N2CCCC2)cc1 (configuration not stated) | 10.2%
Cc1ccc(-c2cn3c(n2)sc2cc(C(=O)NCCC4=CCCCC4)ccc23)c(C)c1 | 13%
Cc1ccc(N2C(=O)C(CC(=O)Nc3ccc(F)cc3)N(CCC3=CCCCC3)C2=O)cc1 (configuration not stated) | -13.7%
CCOc1ccc(-c2nnc(SCC(=O)Nc3ccccc3C(F)(F)F)o2)cc1 | 2.39%
CCCCN1CC(c2nc3ccccc3n2CCCCOc2ccccc2C)CC1=O (configuration not stated) | -3.26%
Cc1c(NC(=O)CSCc2ccc(Br)cc2)c(=O)n(-c2ccccc2)n1C | active: 42.4%
CC(=O)OC1=CN(Cc2ccccc2)S(=O)(=O)c2ccccc21 | -2.81%
COc1ccc(OC)c(S(=O)(=O)NCCc2sc(-c3cccnc3)nc2C)c1 | 9.89%
O=C(c1ccc2c(c1)N(Cc1ccc(Cl)cc1)C(=O)c1ccccc1S2(=O)=O)N1CCCCCC1 | 13.3%

Structure (SMILES) | inhibition
CCCN(Cc1cccs1)C(=O)Nc1cc(C)ccc1OC | -9.67%
Cc1cccc(C)c1Nc1c(-c2ccccc2Cl)nc2cnccn12 | 5.26%
COc1ccccc1N1CCN(c2nc3ccc(C(=O)c4ccccc4)cc3n3c(C)nnc23)CC1 | 2.01%
Cc1ccc(-c2onc(C)c2C)cc1S(=O)(=O)NCc1cccs1 | 7.15%
COc1ccc(OC)c(CNC(=O)C2CCN(S(=O)(=O)N3CCCCC3)CC2)c1 | 12.5%
CCc1nn(CC(=O)Nc2ccc(C)c(F)c2)c(=O)c2cc3cc(C)ccc3n12 | -0.469%
COc1cccc(NC(=O)c2c(-c3ccc(C)cc3)nnc3ccccc23)c1 | 10.4%
Cc1ccc(C)c(Cn2c(=O)n(-c3ccc(Cl)cc3)c(=O)c3c4c(sc32)CCC4)c1 | -1.52%
Cc1ccc(CN2CCN(Cc3ccc(C)s3)CC2CCO)cc1 (configuration not stated) | active: 69.3%
Cc1cc(C)c(S(=O)(=O)Nc2ccc3oc4c(c3c2)CCCC4)cc1C | -3%
COCCCNC(=O)c1ccc(CSc2nc3cccnc3n2Cc2ccc(OC)cc2)cc1 | 14.1%
CCOC(=O)c1ccccc1NC(=O)CSc1c(C)cnc2c1c(=O)n(C)c(=O)n2C | -2.87%
COc1cc(OC)cc(C(=O)NC2CC(C)(C)NC(C)(C)C2)c1 | active: 82.5%
Cc1nc2c(c(C)c1CCC(=O)N1CCN(c3ccccc3)CC1)c(=O)n(C)c(=O)n2C | -18.7%
COc1ccc(C2C=C(c3ccccc3)Nc3nc(NS(=O)(=O)c4ccccc4)nn32)cc1 (configuration not stated) | 16.1%
CCc1ccc(-n2c(=O)c3c4c(sc3n(Cc3ccccc3C#N)c2=O)CCCC4)cc1 | -16%
CCCn1c2ccccc2c2cnn(CC(=O)Nc3cc(C)c(Cl)cc3OC)c(=O)c21 | 2.61%
CC1CCc2c(sc(NC(=O)Cc3ccccc3)c2C(=O)Nc2ccc(Cl)cc2)C1 (configuration not stated) | -10.7%
COc1ccc(OC)c(NC(=O)CSc2nc(=O)n(CCN(C)C)c3c2CCC3)c1 | -2.09%
COc1cc(NC(=O)CC2C(=O)N(c3ccccc3)C(=O)N2Cc2ccc(F)cc2)cc(OC)c1 (configuration not stated) | -17.8%
CCCOc1ccc(C2C(=O)N(C3CCCCCC3)CC(=O)N2Cc2ccccc2OC)cc1OC (configuration not stated) | 5.03%
COc1ccc(CN(C)CC(O)COC(c2ccc(OC)cc2)c2ccc(OC)cc2)cc1 (configuration not stated) | active: 39.3%
CSc1cccc(NC(=O)CN(c2cccc(C)c2)S(C)(=O)=O)c1 | active: 30.1%
COc1ccc(CCC(=O)NCCc2csc(-c3ccc(F)cc3)n2)cc1 | 9.68%
CCCCNC(=O)c1nn(C)c2c1CSc1ccccc1-2 | -14%

Structure (SMILES) | inhibition
Cc1ccc(C(=O)c2cn(Cc3cccc(Cl)c3)c3nc(C)ccc3c2=O)cc1 | 7.59%
Cc1cc2c(cc1S(=O)(=O)NCc1ccc(F)cc1)n(C)c(=O)c(=O)n2C | 2.45%
O=C(CSCc1ccc(F)cc1)N1CCN(c2ccccc2F)CC1 | -11.9%
COc1ccc(NC(=O)c2ccco2)cc1NC(=O)COc1ccc(C)c(C)c1 | -6.95%
CCOc1ccccc1N1CCN(Cc2cccc(OC)c2O)CC1 | active: 67.7%
CC(=O)Cn1c(CN2CCCC2)nc2ccccc2c1=O | active: 35.3%
O=C(NCCc1ccccc1)c1ccc2c(c1)N(Cc1ccc(Cl)cc1)C(=O)CS2 | -18.9%
COc1cccc(C(=O)NCC2OCCc3ccccc32)c1 (configuration not stated) | 18.1%
COc1cc(C)ccc1OCCSc1nc2ccc(NC(=O)c3ccco3)cc2s1 | 19.7%
COc1ccc(C2CC(=O)c3cc(-c4nc(-c5cccc([N+](=O)[O-])c5)cs4)c(=O)n(-c4ccccc4)c3C2)cc1 (configuration not stated) | 12.1%
Cc1cc(Br)ccc1NC(=O)CNC(=O)CNc1cccc([N+](=O)[O-])c1 | active: 30.5%
CCn1cc(C(=O)N(C)Cc2ccccc2)c(=O)c2cc(S(=O)(=O)N3CCc4ccccc4C3)ccc21 | 4.25%
CCN1c2ccccc2-c2nc(SCC(=O)Nc3cccc(C)c3C)ncc2S1(=O)=O | 0.329%
COc1ccc(CNC(=O)CCNS(=O)(=O)c2ccc3c(c2)oc(=O)n3C)cc1 | -16.9%
Cc1ccccc1C(=O)Nc1cc(C)c(O)c(-c2nc3ccccc3o2)c1 | -12.5%
O=C(COc1ccc(Cl)cc1Cl)NC(=O)N1CCCCC1 | active: 32.2%
Cc1cc2c(s1)Nc1ccccc1N=C2N1CCN(C)CC1 | active: 76.8%
CCCCCCn1nnc2sc(-c3ccccc3)cc2c1=O | 3.68%
CC1CCN(CC2CCN(C(=O)NCc3ccccc3)CC2)CC1 | 9.58%
CCOc1ccc(-c2nc(Cn3c(=O)cc(C)c4c(C)nn(-c5ccccc5)c43)c(C)o2)cc1 | 19.7%
CCC1CN(C(=O)Nc2ccccc2F)c2cc(C)ccc2O1 (configuration not stated) | 1.24%
Cc1csc2nc(COC(=O)c3ccccc3NC(=O)c3cccc(Br)c3)cc(=O)n12 | 4.08%
O=C(NCCc1ccc(Cl)cc1)c1c2c(nc3ccccc13)C(=O)N(C1CCCCC1)C2 | 11.1%
O=S(=O)(c1ccc(Br)s1)N1CCN(c2cccc(C(F)(F)F)c2)CC1 | -3.18%
COCCn1c(SCC(=O)Nc2cc(Cl)ccc2OC)nc2c([nH]c3ccccc32)c1=O | 14.1%

Structure (SMILES) | inhibition
Cc1noc(-c2ccc(-c3noc(-c4ccc(F)cc4)n3)cc2)n1 | 17.8%
O=C(CCCn1c2ccccc2c(=O)c2ccccc21)Nc1cccc(Cl)c1 | 1.32%
COc1cccc(CNC(=O)c2cc3c(-c4ccccc4F)nn(C)c3s2)c1 | 5.57%
CCOC(=O)c1cccc(NC(=O)CCSCCc2ccccn2)c1 | 16.1%
COc1cc(C2Nc3ccccc3-c3cc(C)nn32)ccc1O (configuration not stated) | 4.93%
Cc1ccc(NC(=O)Cn2nc(-c3ccccc3)nc(Cc3ccc(Cl)cc3)c2=O)cc1 | -22.7%
COc1cc(OC)cc(-c2cc3nc(C)c(CCC(=O)NCCc4cccc(C)c4)c(C)n3n2)c1 | 15.8%
COc1cc(NC(=O)Cn2nc(C(F)(F)F)c3c2CCC3)cc(OC)c1OC | 4.98%
O=C(CCn1c(=O)c2ccccc2n(CC(=O)Nc2cccc(F)c2)c1=O)NCCc1ccccc1 | 12.2%
COc1ccc(OC)c(CNC(=O)c2ccc(N3Cc4ccccc4Oc4ncccc43)s2)c1 | -4%
CC1CCCN(CCCNC(=O)c2cc(Sc3ccc(F)cc3)nc3ccccc23)C1 (configuration not stated) | -6.23%
Cc1cccc(Cn2cc(S(=O)(=O)c3cccc(Cl)c3)c(=O)c3cc(F)c(N4CCOCC4)cc32)c1 | 14.3%
CCOC(=O)c1c(C)[nH]c(C)c1S(=O)(=O)N(C)CC(=O)Nc1ccc(OC)cc1 | -4.03%
COc1ccc(CC(=O)Nc2c(C(=O)N3CCN(c4ccccc4)CC3)oc3ccccc23)cc1OC | -0.459%
Cn1c(=O)c2nc(SCC(=O)Nc3ccc(OC(F)(F)F)cc3)n(C)c2n(C)c1=O | 18.1%
CCN(CC)c1ncnc2c1cnn2-c1cc(Cl)ccc1C | 4.41%
COc1ccc(-c2nc(CNC(=O)NC3CCCCC3)c(C)o2)cc1 | 17.6%
COc1cc(C(CC(=O)Nc2ccc(C)c(F)c2)N2Cc3ccccc3C2=O)cc(OC)c1OC (configuration not stated) | 17.9%
CCOc1ccccc1NC(=O)C1CCN(S(=O)(=O)c2c(C)noc2/C=C/c2ccco2)CC1 | -17.5%
O=C1OCC2=C1C(c1cccc(Cl)c1)CC(=O)N2c1ccc(C(F)(F)F)cc1 (configuration not stated) | -6.8%
O=C(Nc1ccc(F)cc1F)C1CCN(c2ncccn2)CC1 | 8.08%
O=S(=O)(c1ccc(C2CCCCC2)cc1)N1CCN(c2ccc(Cl)c(Cl)c2)CC1 | 5.78%
